# Experimental data published in the supplement of paper PMC4723716.
# ± gives the uncertainty stated by the source. In all, about 9,900 compounds were measured (“viability index relative to DMSO control”: median about 1, lowest 2% from about 0.85 on). The list shows a part of the results.
# Tested on: Plasmodium falciparum NF54 stage V gametocytes
# Test: viability index relative to DMSO control (fraction); higher = less gametocyte killing
# Conditions: 2.5 µM, incubation time: 72 h
# How it was run: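 Stage V gametocytes of P. falciparum NF54 were held in serum-free screening medium at 0.75% gametocytemia and 1.25% hematocrit, 10 µl per well of a 1,536-well plate, and exposed to compound at 2.5 µM for 72 hr at 37°C under low oxygen. A 3 µl mix of 2.5 µM MitoTracker Red CMXRos with 0.13% saponin was then added for one to two hours, after which one field per well was imaged and red particles of 20–70 µm2 were counted. The viability index equals this count divided by the plate mean from wells given solvent alone.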
# [1] = library set: Broad Institute DOS
Structure (SMILES),viability index [1],viability index (library set: Broad Institute Blood Stage)
COCC(=O)N1[C@@H](CO)[C@H](c2ccc(-c3ccccc3OC)cc2)C12CN(C(C)=O)C2,0.99 ± 0.07,
COc1ccc(-c2ccc([C@H]3[C@H]4CN(C(=O)Cc5ccccn5)CC(=O)N4[C@H]3CO)cc2)cc1,1.02 ± 0.093,
CC(=O)N1[C@H](CO)[C@@H]2c3ccccc3N(S(=O)(=O)c3ccccc3C)C[C@@H]21,0.975 ± 0.1,
CC(=O)N1[C@H](CO)[C@H](c2ccccc2)[C@H]1CN(C(=O)c1ccccc1F)C(C)C,0.996 ± 0.048,
CC(C)C#Cc1ccc([C@H]2[C@@H](CO)N3C(=O)CN(C(=O)NC4CCCC4)C[C@H]23)cc1,0.939 ± 0.083,
CS(=O)(=O)N1[C@H](C#N)[C@H](c2ccc(C#Cc3cccc(F)c3)cc2)[C@H]1CO,0.9841 ± 0.0042,
CC(C)[C@H]1COCn2nncc2CC[C@H](Cc2ccc(Cl)cc2)C(=O)N1,1.07 ± 0.026,
COc1ccc(CN(C)C[C@@H]2OCCCC[C@H](C)Oc3ccc(NC(=O)C4CCCCC4)cc3C(=O)N([C@@H](C)CO)C[C@@H]2C)cc1,1 ± 0.02,
COc1cccc(-c2ccc3c(c2)[C@@H]2[C@@H](CCN2S(=O)(=O)c2cn(C)cn2)[C@H](CO)N3)c1,1.09 ± 0.055,
CN1c2ccc(Br)cc2[C@H]2[C@H](CCN2C(=O)CN2CCOCC2)[C@@H]1CO,1.05 ± 0.077,
CS(=O)(=O)N1[C@H](CO)[C@@H](c2ccccc2)C12CN(Cc1ccccn1)C2,1.07 ± 0.07,
CC(=O)N1[C@H](CO)[C@@H](c2ccccc2)C12CN(Cc1ccc(Cl)cc1)C2,1.06 ± 0.056,
c1cc(-c2ccc([C@@H]3[C@H]4CNC[C@@H]3N4Cc3nccs3)cc2)ccn1,1.04 ± 0.092,
Cc1noc(C)c1NC(=O)N(C)C[C@@H]1Oc2cc(C#CCN(C)C)ccc2S(=O)(=O)N([C@@H](C)CO)C[C@H]1C,0.947 ± 0.18,
COc1ccc(C#Cc2cccc(-c3nc(C(=O)Nc4ccc(-c5ccccc5)cc4)cc4c3[C@@H](CCO)N(S(=O)C(C)(C)C)C4)c2)cc1OC (stereo partly specified),1.016 ± 0.0075,
COc1ccc2c3c([C@@H](CO)N(C[C@]33CCN(CC3)C(=O)Nc3cccc(F)c3)C(=O)C3CCCC3)n(C)c2c1,,0.822 ± 0.039
N#Cc1cccc(-c2ccc([C@@H]3[C@@H]4CN(C(=O)C5CCOCC5)C[C@H]3N4)cc2)c1,1 ± 0.072,
O=C(C[C@H]1C[C@H]2c3cc(NS(=O)(=O)c4ccc(F)cc4)ccc3O[C@H]2[C@H](CO)O1)N1CCc2ccccc2C1,0.861 ± 0.059,
COc1cccc(C#Cc2ccc([C@@H]3[C@H](C#N)N[C@H]3CO)cc2)c1,1.01 ± 0.066,
CC(C)NC(=O)N1[C@@H](CO)[C@H](c2ccccc2)[C@@H]1CN(C)C(=O)c1cccnc1,1.08 ± 0.036,
CS(=O)(=O)N1[C@H](C#N)[C@@H](c2ccc(/C=C/c3ccccc3)cc2)[C@H]1CO,1.11 ± 0.044,
